Experimental data reported in the supplement of paper PMC3722116.
Growth of fresh clinical P. falciparum isolates by hypoxanthine uptake over 42 h; for most isolates 1.6-1,647 nM mefloquine, 0.044-87 nM artesunate, 10-10,256 nM chloroquine, 2.4-236 nM lumefantrine. EC50, lower = more sensitive; slope from the same fit, higher = steeper. No active / inactive call. Fits with a coefficient of variation above 100% are not listed here; 15-28% of fits exceed 15%. Isolates are numbered anew.

What was measured:
lumefantrine [1] = compound: T1, CCCCN(CCCC)CC(O)c1cc(Cl)cc2c1-c1ccc(Cl)cc1/C2=C/c1ccc(Cl)cc1 [lumefantrine]
Protocol: (§1)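 Hypoxanthine uptake by fresh isolates, duplicate serial dilutions, 24 h of drug plus 18 h after the label; sigmoid fit per isolate.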

chloroquine [2] = compound: T2, CCN(CC)CCCC(C)Nc1ccnc2cc(Cl)ccc12 [chloroquine]
Protocol: as §1

artesunate [3] = compound: T3, C[C@H]1[C@H](OC(=O)CCC(=O)O)O[C@@H]2O[C@@]3(C)CC[C@H]4[C@H](C)CC[C@@H]1[C@@]24OO3 [artesunate]
Protocol: as §1

mefloquine [4] = compound: T4, OC(c1cc(C(F)(F)F)nc2c(C(F)(F)F)cccc12)C1CCCCN1 [mefloquine]
Protocol: as §1

lumefantrine [5] = compound: T1, lumefantrine; assay: slope of the dose-response curve (dimensionless); higher = steeper concentration-effect curve
Protocol: as §1

chloroquine [6] = compound: T2, chloroquine; assay: as above
Protocol: as §1

artesunate [7] = compound: T3, artesunate; assay: as above
Protocol: as §1

mefloquine [8] = compound: T4, mefloquine; assay: as above
Protocol: as §1

Test System | EC50 of parasite growth (lumefantrine [1]) [µg/mL] | EC50 of parasite growth (chloroquine [2]) [µg/mL] | EC50 of parasite growth (artesunate [3]) [µg/mL] | EC50 of parasite growth (mefloquine [4]) [µg/mL] | slope (lumefantrine [5]) | slope (chloroquine [6]) | slope (artesunate [7]) | slope (mefloquine [8])
Plasmodium falciparum isolate 208 (pfmdr1 allele: 86N, 1042N, pfmdr1 copies: 1) | 0.00765 | 0.0726 | 0.0002 | 0.00417 | 2.6 | 4.04 | 3.53 | 1.78
Plasmodium falciparum isolate 39 (pfmdr1 allele: 86N, 1042N, pfmdr1 copies: 1) | 0.0225 | 0.159 | 0.000914 | 0.0104 | 3.37 | 7.25 | 9.46 | 1.67
Plasmodium falciparum isolate 376 (pfmdr1 allele: 86N, 1042N, pfmdr1 copies: 1) | 0.0141 | 0.281 | 0.000831 | 0.0215 | 3.16 | 10 | 5.51 | 2.86
Plasmodium falciparum isolate 47 (pfmdr1 allele: 86N, 1042N, pfmdr1 copies: 1) | 0.0352 | 0.136 | 0.000758 | 0.0348 | 1.75 | 5.98 | 5.82 | 2.61
Plasmodium falciparum isolate 135 (pfmdr1 allele: 86N, 1042N, pfmdr1 copies: 2) | 0.0162 | 0.245 | 0.00188 | 0.0864 | 2.5 | 3.38 | 6.61 | 2.92
Plasmodium falciparum isolate 232 (pfmdr1 allele: 86N, 1042N, pfmdr1 copies: 2) | 0.0268 | 0.0528 | 0.00105 | 0.0373 | 2.44 | 2.33 | 4.55 | 2.37
Plasmodium falciparum isolate 189 (pfmdr1 allele: 86N, 1042N, pfmdr1 copies: 2) | 0.0844 | 0.0524 | 0.000705 | 0.0805 | 3.2 | 2.9 | 7.83 | 2.86
Plasmodium falciparum isolate 296 (pfmdr1 allele: 86N, 1042N, pfmdr1 copies: 3) | 0.0366 | 0.0957 | 0.00411 | 0.066 | 2.23 | 5.92 | 9.99 | 3.64
Plasmodium falciparum isolate 423 (pfmdr1 allele: 86N, 1042N, pfmdr1 copies: 2) | 0.0366 | 0.0744 | 0.000427 | 0.0505 | 1.93 | 2.81 | 6.6 | 4.11
Plasmodium falciparum isolate 406 (pfmdr1 allele: 86N, 1042N, pfmdr1 copies: 1) | 0.0206 | 0.0836 | 0.000455 | 0.0233 | 2.09 | 2.8 | 9.99 | 2.1
Plasmodium falciparum isolate 323 (pfmdr1 allele: 86N, 1042N, pfmdr1 copies: 3) | 0.0424 | 0.0758 | 0.00105 | 0.0802 | 2.46 | 4.46 | 9.88 | 2.38
Plasmodium falciparum isolate 424 (pfmdr1 allele: 86N, 1042N, pfmdr1 copies: 1) | 0.0546 | 0.0962 | 0.00103 | 0.0416 | 4.01 | 3.79 | 10 | 2.53
Plasmodium falciparum isolate 416 (pfmdr1 allele: 86N, 1042N, pfmdr1 copies: 2) | 0.0736 | 0.0389 | 0.000695 | 0.052 | 3.59 | 2.31 | 6.18 | 2.87
Plasmodium falciparum isolate 164 (pfmdr1 allele: 86N, 1042N, pfmdr1 copies: 1) | 0.038 | 0.16 | 0.000823 | 0.0304 | 2.12 | 3.86 | 6 | 3.17
Plasmodium falciparum isolate 35 (pfmdr1 allele: 86N, 1042N, pfmdr1 copies: 1) | 0.0179 | 0.106 | 0.000364 | 0.0267 | 1.95 | 2.62 | 4.17 | 2.27
Plasmodium falciparum isolate 396 (pfmdr1 allele: 86N, 1042N, pfmdr1 copies: 1) | 0.0152 | 0.0398 | 0.00225 | 0.0382 | 2.78 | 6.36 | 5 | 2.88
Plasmodium falciparum isolate 410 (pfmdr1 allele: 86N, 1042N, pfmdr1 copies: 1) | 0.0197 | 0.0768 | 0.000417 | 0.025 | 1.99 | 3.84 | 3.71 | 1.99

Test System | EC50 of parasite growth (lumefantrine [1]) [µg/mL] | EC50 of parasite growth (chloroquine [2]) [µg/mL] | EC50 of parasite growth (artesunate [3]) [µg/mL] | EC50 of parasite growth (mefloquine [4]) [µg/mL] | slope (lumefantrine [5]) | slope (chloroquine [6]) | slope (artesunate [7]) | slope (mefloquine [8])
Plasmodium falciparum isolate 386 (pfmdr1 allele: 1042D, pfmdr1 copies: 1) | 0.00421 | 0.0769 | 0.000586 | 0.00279 | 2.56 | 3.34 | 3.58 | 1.95
Plasmodium falciparum isolate 351 (pfmdr1 allele: 86N, 1042N, pfmdr1 copies: 1) | 0.0194 | 0.122 | 0.000749 | 0.0196 | 2.19 | 4.08 | 6.44 | 3.25
Plasmodium falciparum isolate 84 (pfmdr1 allele: 86N, 1042N, pfmdr1 copies: 1) | 0.00357 | 0.0933 | 0.000327 | 0.00325 | 1.03 | 2.03 | 2.99 | 1.59
Plasmodium falciparum isolate 105 (pfmdr1 allele: 86N, 1042N, pfmdr1 copies: 1) | 0.00974 | 0.136 | 0.00108 | 0.0326 | 3.01 | 5.3 | 9.48 | 4.12
Plasmodium falciparum isolate 11 (pfmdr1 allele: 86N, 1042N, pfmdr1 copies: 1) | 0.0218 | 0.293 | 0.00197 | 0.0418 | 2.03 | 3.94 | 10 | 3.54
Plasmodium falciparum isolate 450 (pfmdr1 allele: 86N, 1042N, pfmdr1 copies: 1) | 0.02 | 0.121 | 0.00194 | 0.0279 | 3.01 | 5.12 | 5.03 | 3.39
Plasmodium falciparum isolate 159 (pfmdr1 allele: 86N, 1042N, pfmdr1 copies: 1) | 0.0134 | 0.0925 | 0.000591 | 0.0321 | 2.65 | 2.97 | 6.53 | 2.37
Plasmodium falciparum isolate 458 (pfmdr1 allele: 86Y, pfmdr1 copies: 1) | 0.00204 | 0.16 | 0.00038 | 0.00234 | 1.41 | 1.25 | 1.7 | 1.48
Plasmodium falciparum isolate 269 (pfmdr1 allele: 86N, 1042N, pfmdr1 copies: 1) | 0.0659 | 0.188 | 0.00253 | 0.0292 | 4.08 | 3.03 | 1.32 | 1.04
Plasmodium falciparum isolate 194 (pfmdr1 allele: 86N, 1042N, pfmdr1 copies: 2) | 0.0343 | 0.119 | 0.00155 | 0.0783 | 2.11 | 6.69 | 6.92 | 3.44
Plasmodium falciparum isolate 428 (pfmdr1 allele: 86N, 1042N, pfmdr1 copies: 1) | 0.0587 | 0.0772 | 0.000281 | 0.0131 | 2.17 | 2.94 | 4.67 | 1.98
Plasmodium falciparum isolate 390 (pfmdr1 allele: 86N, 1042N, pfmdr1 copies: 1) | 0.0125 | 0.193 | 0.000248 | 0.0123 | 2.93 | 6.2 | 3.15 | 2.71
Plasmodium falciparum isolate 253 (pfmdr1 allele: 86N, 1042N, pfmdr1 copies: 1) | 0.00457 | 0.0849 | 0.000403 | 0.00363 | 0.755 | 2.75 | 2.64 | 1.1
Plasmodium falciparum isolate 378 (pfmdr1 allele: 86N, 1042N, pfmdr1 copies: 1) | 0.0193 | 0.0994 | 0.000966 | 0.0391 | 3.87 | 5.62 | 6.53 | 2.42
Plasmodium falciparum isolate 275 (pfmdr1 allele: 86N, 1042N, pfmdr1 copies: 1) | 0.00811 | 0.1 | 0.000444 | 0.022 | 2.27 | 4.24 | 10 | 2.65
Plasmodium falciparum isolate 17 (pfmdr1 allele: 86N, 1042N, pfmdr1 copies: 1) | 0.0379 | 0.0933 | 0.0006 | 0.0262 | 2.51 | 3.32 | 6.92 | 2.51
